These results are taken from publication PMC9600267, “The Antibacterial Type VII Secretion System of Bacillus subtilis: Structure and Interactions of the Pseudokinase YukC/EssB” (mBio, 2022).

Assay in all cases: cross-linking; in vivo disulfide cross-linking of single-cysteine variants in B. subtilis; free thiols blocked with 5 mM N-ethyl maleimide; total extracts on SDS-PAGE with or without β-mercaptoethanol; anti-His immunoblot
On the technique in general: In western blotting, separated proteins are transferred to a membrane and probed.

Test [1] has as its target His6-YukC I208C (Bacillus subtilis 168) (UniProt P71070).
Test [2] deals with His6-YukC H209C (Bacillus subtilis 168) (UniProt P71070).
Test [3] addresses His6-YukC I210C (Bacillus subtilis 168) (UniProt P71070).
Test [4] concerns the target His6-YukC R212C (Bacillus subtilis 168) (UniProt P71070).

These are yes or no findings as the source states them, for the method shown. Binding seen in cells or lysates may run through a third protein. Some binding calls cover weakened binding; strength is not graded here. Where a sequence is shown, tags or fusion partners need not be part of it.

B1: His6-YukC I208C (protein, UniProt P71070 1-451)
chain: MSGEQKSYLENQLEAVAEKTDAGYTFTFQREKIKLLDGLEANVIKDINPFFHKEIDVTDDEVIITIQPPSSYKAFRFMKAKDKKSKWQFAYQLVQAVQQHNLSRLNLIVAPENIVFDKGLTPYFLHYGVKESIPPYERDEERVWQELKAAAALAVDGAFAFEDYLKFNETLTFSAEAKAILDAESYDDLLELIQTHIDELEAKAKTYCHIPRKKWNIQRYIGLGLIVLLVPALIYSMYALFFAQPKHQAIVDSNRAFLNKQYSEVISTLSKYDAESLPESVQYQLATSYVEVENLGSAKTKNIENNLVTLQSDPQHFLYWIDYGRGEYKEAISIGRKLEYNDYIYFALAKYKQQLLSEDTNDEDIQKELDSVNSELEKAQKERQENKQSNSETSLVDTSEEQTQTDEEKQAEEKAAEEKAAAEEKAKKEEQKEKEDEKKETEKKDEKKDDK
In the case of B1, the binding result in test [1] was “binds”.

B2: His6-YukC H209C (protein, UniProt P71070 1-451)
chain: MSGEQKSYLENQLEAVAEKTDAGYTFTFQREKIKLLDGLEANVIKDINPFFHKEIDVTDDEVIITIQPPSSYKAFRFMKAKDKKSKWQFAYQLVQAVQQHNLSRLNLIVAPENIVFDKGLTPYFLHYGVKESIPPYERDEERVWQELKAAAALAVDGAFAFEDYLKFNETLTFSAEAKAILDAESYDDLLELIQTHIDELEAKAKTYICIPRKKWNIQRYIGLGLIVLLVPALIYSMYALFFAQPKHQAIVDSNRAFLNKQYSEVISTLSKYDAESLPESVQYQLATSYVEVENLGSAKTKNIENNLVTLQSDPQHFLYWIDYGRGEYKEAISIGRKLEYNDYIYFALAKYKQQLLSEDTNDEDIQKELDSVNSELEKAQKERQENKQSNSETSLVDTSEEQTQTDEEKQAEEKAAEEKAAAEEKAKKEEQKEKEDEKKETEKKDEKKDDK
For the molecule B2, the binding result in test [2] was “binds”.

B3: His6-YukC I210C (protein, UniProt P71070 1-451)
chain: MSGEQKSYLENQLEAVAEKTDAGYTFTFQREKIKLLDGLEANVIKDINPFFHKEIDVTDDEVIITIQPPSSYKAFRFMKAKDKKSKWQFAYQLVQAVQQHNLSRLNLIVAPENIVFDKGLTPYFLHYGVKESIPPYERDEERVWQELKAAAALAVDGAFAFEDYLKFNETLTFSAEAKAILDAESYDDLLELIQTHIDELEAKAKTYIHCPRKKWNIQRYIGLGLIVLLVPALIYSMYALFFAQPKHQAIVDSNRAFLNKQYSEVISTLSKYDAESLPESVQYQLATSYVEVENLGSAKTKNIENNLVTLQSDPQHFLYWIDYGRGEYKEAISIGRKLEYNDYIYFALAKYKQQLLSEDTNDEDIQKELDSVNSELEKAQKERQENKQSNSETSLVDTSEEQTQTDEEKQAEEKAAEEKAAAEEKAKKEEQKEKEDEKKETEKKDEKKDDK
On to B3, for which, in test [3], the binding entry was “binds”.

B4: His6-YukC R212C (protein, UniProt P71070 1-451)
chain: MSGEQKSYLENQLEAVAEKTDAGYTFTFQREKIKLLDGLEANVIKDINPFFHKEIDVTDDEVIITIQPPSSYKAFRFMKAKDKKSKWQFAYQLVQAVQQHNLSRLNLIVAPENIVFDKGLTPYFLHYGVKESIPPYERDEERVWQELKAAAALAVDGAFAFEDYLKFNETLTFSAEAKAILDAESYDDLLELIQTHIDELEAKAKTYIHIPCKKWNIQRYIGLGLIVLLVPALIYSMYALFFAQPKHQAIVDSNRAFLNKQYSEVISTLSKYDAESLPESVQYQLATSYVEVENLGSAKTKNIENNLVTLQSDPQHFLYWIDYGRGEYKEAISIGRKLEYNDYIYFALAKYKQQLLSEDTNDEDIQKELDSVNSELEKAQKERQENKQSNSETSLVDTSEEQTQTDEEKQAEEKAAEEKAAAEEKAKKEEQKEKEDEKKETEKKDEKKDDK
Consider B4, for which the binding entry in test [4] is given as “binds”.
